Assay results taken from PubChem BioAssay AID1030 (National Center for Advancing Translational Sciences (NCATS), 2008).
Hit rate of the full screen: of about 220,000 compounds, about 16,000 (7.3%) were called active. Inconclusive means that the source gave no clear call. Such entries were picked first, then a sample of the others. The call rests on the fitted dose curve; in most records, active means well fitted inhibition curve with a large enough effect (not every such curve was filed as active); inconclusive means small, poorly fitted or top-dose-only effect, or another doubt; inactive means no such curve, though single readings can be large or run the other way. Potencies beside an inconclusive call are fits to weak or partial responses and may not hold up.

What follows are compounds tested against Aldehyde dehydrogenase 1A1 (Homo sapiens) (UniProt P00352) (assay: qHTS Assay for Inhibitors of Aldehyde Dehydrogenase 1 (ALDH1A1)). Conditions: Purified ALDH1A1, NADH fluorescence, propionaldehyde substrate; series mostly up to 75.3 µM; activity, negative = inhibition: at the top concentration.
Potency means the concentration at half of the fitted maximal effect; tags describe the fitted curve by direction and shape.
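Wherever activity, negative = inhibition is given: plate controls were no enzyme wells and a reference inhibitor.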

Chain of UniProt P00352 (P00352 whole entry, looked up): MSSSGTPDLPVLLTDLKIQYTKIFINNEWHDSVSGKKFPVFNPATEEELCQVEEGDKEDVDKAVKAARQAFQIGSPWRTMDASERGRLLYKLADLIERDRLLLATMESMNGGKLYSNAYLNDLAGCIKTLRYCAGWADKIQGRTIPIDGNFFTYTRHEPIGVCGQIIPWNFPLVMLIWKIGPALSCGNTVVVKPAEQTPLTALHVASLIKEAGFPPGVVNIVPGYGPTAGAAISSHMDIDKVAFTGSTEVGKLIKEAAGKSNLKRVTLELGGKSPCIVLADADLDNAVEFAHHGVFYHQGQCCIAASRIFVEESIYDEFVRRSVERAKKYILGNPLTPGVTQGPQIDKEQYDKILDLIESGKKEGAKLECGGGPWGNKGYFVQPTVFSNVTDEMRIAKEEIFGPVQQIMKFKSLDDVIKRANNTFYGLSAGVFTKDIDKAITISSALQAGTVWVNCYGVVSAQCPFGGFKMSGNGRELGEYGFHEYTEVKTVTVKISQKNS

activity, negative = inhibition, inactive:
CCOc1ccc(C(=O)N2CCCN(C(=O)c3ccc(OCC)cc3)CC2)cc1 -13.8%
COc1ccc(COC(=O)N/N=C2/C[C@@H](O)[C@@H](O)[C@@H]3[C@@H]4C(=O)N(Cc5ccc6c(c5)OCO6)C(=O)[C@H]4CC[C@H]23)cc1 -7.51% [at 13.5 µM]
CCCC(=O)OCC(=O)Nc1ccc2[nH]c(=O)[nH]c2c1 -4.5%
CC(C)(C)OC(=O)N[C@H](Cc1ccccc1)C(=O)N1CCC(C(=O)O)CC1 4.55%
COc1ccc(-n2cc(CNCCc3cnc[nH]3)c(-c3cccc(F)c3)n2)cc1 3.69%
CCOC(=O)c1sc(NC(=O)CCCn2nc([N+](=O)[O-])c(Cl)c2C)c(C(=O)OCC)c1C -4.65%
O=C(/C=C/c1ccc(F)cc1)NC(=S)Nc1ccccc1C(=O)NC1CCCCC1 -1.19%
O=C(Oc1ccc(Nc2ncnc3ccccc23)cc1)c1cccnc1 3.59%
Cc1ccc(NC(=O)CN2C(=O)c3ccccc3C2=O)nc1 9.41%
COCCNC(=O)CCc1c(C)nc2nc(-c3cc(OC)cc(OC)c3)nn2c1C 0.691%

Potency, inconclusive:
CCC(=O)c1cc(F)c(N2CCN(C(=O)c3ccco3)CC2)cc1C 12.6 µM [inhibitor, partial curve, poor fit]
COc1cccc(-c2cnc(OC(C)(C)C)nc2OC(C)(C)C)c1 37.7 µM [inhibitor, single point]
Cc1cccc(Nc2ccccc2C(=O)OCC(=O)N2CCOCC2)c1C 14.1 µM [inhibitor, single point]
CCOC(=O)c1c(-c2ccccc2)oc2ccc(OC)cc12 14.1 µM [inhibitor, partial curve]
CC(C)Oc1cccc(C(=O)C2CCCN(C(=O)c3ccnn3C)C2)c1 (stereo not given) 28.2 µM [inhibitor, partial curve]
COCC1CCN(Cc2cn[nH]c2-c2cc(OC)c(OC)c(OC)c2)CC1 22.4 µM [inhibitor, single point]
COCc1cc(=O)[nH]c(Nc2nc3ccc(C)cc3o2)n1 28.2 µM [inhibitor, single point]
O=C(CSc1nnc(-c2cccnc2)n1Cc1ccco1)c1ccccc1 15.8 µM [inhibitor, partial curve]
CN=c1scc(C)n1/N=C/c1cc(Br)c(O)c(OC)c1 39.8 µM [inhibitor, single point]
C=CCc1cccc(/C=N/c2ncccc2O)c1O 39.8 µM [inhibitor, single point]
O=C(NC1CC2CCCC(C1)N2S(=O)(=O)c1ccccc1)c1ccccc1 (stereo not given) 20 µM [inhibitor, partial curve]
Cc1ccc(-n2nnnc2SCC(=O)c2ccc3c(c2)NC(=O)CO3)c(C)c1 28.2 µM [inhibitor, partial curve]
CCNC(=O)CC1C(=O)N(CC)C(=S)N1NC(=O)c1ccc(Cl)cc1 (stereo not given) 39.8 µM [inhibitor, single point]
CCOC(=O)COc1ccc2nsnc2c1Cl 31.6 µM [inhibitor, single point]
COc1cccc(NC(=O)CSc2nc3c(sc4ccccc43)c(=O)n2CCN(C)C)c1 25.1 µM [inhibitor, partial curve]
O=C1C2CC=CCC2C(=O)N1c1ccc(Cc2ccncc2)cc1 (stereo not given) 39.8 µM [inhibitor, single point]
Cc1ccc(N[C@H](c2ccccc2)c2ccc3cccnc3c2O)cc1 8.91 µM [inhibitor, single point]
C=CCn1cnc2c(c1=O)c1nc3ccccc3nc1n2-c1ccccc1 22.4 µM [inhibitor, single point]
CC(C)(C)c1ccc(NC(=O)COC(=O)C2=COCCO2)cc1 39.8 µM [inhibitor, single point]
CCC1CCCN1Cn1cnc2c([nH]c3ccc(OC)cc32)c1=O (stereo not given) 25.1 µM [inhibitor, partial curve]
O=C(NCC1CCS(=O)(=O)C1)NCC1CCS(=O)(=O)C1 (stereo not given) 39.8 µM [inhibitor, single point]
CCS(=O)(=O)N1CCN(c2ccc([N+](=O)[O-])c(NCc3ccccc3)c2)CC1 20 µM [inhibitor, single point]
N#CC1=C(SCc2ccccc2)NC(=O)CC1c1ccccc1 (stereo not given) 17.8 µM [inhibitor, partial curve]
CSc1nc2oc3c(c2c2nncn12)CC(C)(C)SC3 31.6 µM [inhibitor, partial curve]
COc1cc(/C=N/N2C(=O)c3ccccc3C2=O)ccc1O 44.7 µM [inhibitor, single point]
Cn1nnc(NC(=S)NC(=O)c2cccs2)n1 39.8 µM [inhibitor, single point]
O=C(Cn1c(=O)oc2ccccc21)Nc1ccc2c(c1)OCCO2 37.7 µM [inhibitor, single point]

Potency, active:
CN1c2ccsc2C(O)=C(C(=S)Nc2ccc(F)c(Cl)c2)S1(=O)=O 9.46 µM
CCN1C(=O)/C(=C\c2ccc(-c3ccc([N+](=O)[O-])cc3OC)o2)SC1=Nc1cccc(C(=O)O)c1 0.631 µM
COc1cc(OC)c2c(-c3ccccc3)cc(=O)oc2c1 14.1 µM
O=C(c1ccccc1F)N1CCN(c2ccc([N+](=O)[O-])c(N3CCOCC3)c2)CC1 0.708 µM
COc1ccccc1N1CCN(C(c2cc3ccc(C)cc3[nH]c2=O)c2nnnn2C2CCCC2)CC1 (stereo not given) 25.1 µM
c1ccc(C(c2nnnn2C2CCCC2)N2CCN(c3nc4ccccc4s3)CC2)cc1 (stereo not given) 14.1 µM
COc1ccc(NS(=O)(=O)c2cc(NC(=O)CC3CCCC3)ccc2N2CCOCC2)cc1 3.16 µM
Cc1ccc(-c2[nH]c3ccccc3c2C(C[N+](=O)[O-])c2ccco2)cc1 (stereo not given) 28.2 µM
